According to the supplement of paper PMC11417369:
± gives the standard deviation of the averaged measurements. Some of the results follow.

Tested on: PfAP2-LT AP2 domain (GST-tagged)
Assay: gcPBM binding intensity (ln(normalized median fluorescence intensity)); higher = stronger DNA binding
Procedure, shortened: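 Using an Agilent 4 × 180k array, primer-extended double-stranded 36-bp intergenic genomic probes and negative controls were exposed for 1 h to GST-fused P. falciparum DNA-binding domains expressed in E. coli. Binding was carried out in 1× PBS with 1% milk, 0.2 mg/ml BSA, 0.5% salmon testes DNA and 0.03% Triton X-100, and protein was detected with Alexa488 anti-GST antibody and a 488 nm scan. Binding intensity is the highest Masliner-normalised natural-log median intensity across replicate spots of either probe orientation.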

In order of rising “gcPBM binding intensity (ln)” value:
1. TTTTAAAATTTTTTTTTTTTTTTTTTATGAACAAGT [GTGCAC_negctrl_site124]  8.04 ± 0.47
2. AAGAAAAAAATTTATACAAGAATTTTTTATTATTAA [TGCATGCA_negctrl_site587]  8.14 ± 0.44
3. TCCTTAAAAATCTAAAAAGAAAAAAACATATATTTT [GTGCAC_negctrl_site123]  8.16 ± 0.45
4. TTTTTAATTATTTATATAACGATAATCCTTACATAA [TGCATGCA_negctrl_site180]  8.23 ± 0.57
5. ATATATCACAATAAAATTTATAGAATTTTAAATAAG [TGCATGCA_negctrl_site437]  8.29 ± 0.33
6. TTTATTTATTATTAAAGTACTAAATCATATTATTAT [XGTACX_site992]  8.4 ± 0.41
7. AAGTCAATTTTTTTTTTTTTTTTTTAACTTATTAAT [TGCATGCA_negctrl_site14]  8.43 ± 0.45
8. TTTTAAAGAAAATATTTTATCATTATTTTTTGTACT [CACACA_negctrl_site1648]  8.45 ± 0.54
9. TTTTCTTTTTTCTGTTGTACTAAAAATAATTTTGTA [XGTACX_site5171]  8.48 ± 0.44
10. TTTTTAATATATATCACACATATATATTTTTAATTA [CACACA_site6099]  8.49 ± 0.57
11. ATAAAAATCTTTAGTAGTACATTATAAAAAACTATT [XGTACX_site5531]  8.52 ± 0.37
12. CAATAAAGAGGGAATTGTACTTTAAATATCCCTCTT [XGTACX_site1991]  8.6 ± 0.42
13. TCTTATTTTTTTATATATACAAAGTTTTATATATAT [GTGCAC_negctrl_site314]  8.69 ± 0.42
14. TTTAAAAATTAATTCTGTACACATTTTTATTTTATT [XGTACX_site8]  8.71 ± 0.55
15. TTCTTTCTTCAAAAGTGTACCAAATGTTAGAAAGGT [XGTACX_site4353]  8.71 ± 0.29
16. AATGTATATAATATTAATATGTAAATATATAATCAA [CACACA_negctrl_site1683]  8.72 ± 0.39
17. ATAGTAAATATAAAAAGTACTGATTCTTAAATTGTT [XGTACX_site5972]  8.74 ± 0.48
18. AAAAAAAAAAAAAAAGTGCACTGAAAATATATTGAA [GTGCAC_site9395]  8.76 ± 0.53
19. GTTCAATCGGGTGTTACTTCAAACAAGGAACAACAA [TGCATGCA_negctrl_site471]  8.77 ± 0.52
20. AATATTTTAAATATTGCATGCAATGAAAAATGTAAA [TGCATGCA_site139]  8.77 ± 0.26
21. TATTTTATTGTTGTTATACACACCATATAAAATATT [CACACA_site1630]  8.78 ± 0.4
22. TATTTATATATTATGTGTCCACATGTAAGCTATCTT [XGTACX_site3887]  8.8 ± 0.45
23. ATTATTATATATATAACACACATAATTATATACTTA [CACACA_site1563]  8.82 ± 0.49
24. ATATTTAAATCGAAGGTGCGTATTTCCTTTTTTTTT [GTGCAC_site9632]  8.82 ± 0.49
25. TTAAAAAGTGCGTAGTGTACTAATATAAATAATACA [XGTACX_site2922]  8.83 ± 0.45
26. AAATAAAAACCATATCGTACAAAAATTTTTGTATTT [XGTACX_site7497]  8.86 ± 0.43
27. TATACATTATCTTATGCATGCGCATCTGCATATAAA [TGCATGCA_site266]  8.91 ± 0.33
28. AATATATTTCGAGATACACACATATATAAAAAAAAA [CACACA_site3398]  8.91 ± 0.45
29. AACATATATTAGCTTACATGCAAAAAGTAAAAAAAT [TGCATGCA_site10]  8.92 ± 0.42
30. ATATATTGATATATGTGTACATAGCTTATTTCATTT [XGTACX_site1800]  8.93 ± 0.47
31. GATCACTGAATAAAGGCACACATCTGACTAATTTTT [CACACA_site66]  8.98 ± 0.42
32. ATTCATTTCTATTTTACACACAATAAGTAACTTAAT [CACACA_site2850]  9.04 ± 0.41
33. CTAATCGTGCACAACTGTACATTTGTCAAGGGCAAT [XGTACX_site8662]  9.04 ± 0.36
34. AAAAAAATAACAAAATGTATACAATATAACAAAAAT [GTGCAC_negctrl_site512]  9.05 ± 0.51
35. AACATATACCCAGGTACATGCAAATATATATATTAT [TGCATGCA_site878]  9.08 ± 0.37
36. AAAAAAAAAAAAAAGACACACAATGTGAAATAATAA [CACACA_site804]  9.12 ± 0.59
37. AAAAAAAAAATATATATATATATATATATATAATTT [GTGCAC_negctrl_site32]  9.15 ± 0.41
38. ATATAATATATGTAAGTGCGCTTATAAATAAAACGA [GTGCAC_site9841]  9.18 ± 0.53
39. ATATATATATATATGTGTACACAACAAAATAAAAAA [XGTACX_site7378]  9.19 ± 0.42
40. AATAAATATAGATTCACACACAAACATATATAAATA [CACACA_site7814]  9.27 ± 0.37
41. TATACCTATAAATACACACACATATATAAATATGTA [CACACA_site6625]  9.27 ± 0.31
42. AACAAAAATGAAAAAACACACATAACATATATAAAT [CACACA_site740]  9.27 ± 0.41
43. ATGTGAACATTCAATGCACACGATGTAATTATACAT [CACACA_site15]  9.3 ± 0.28
44. AAAATAAAATAAAATACACACATACATACATACAAA [CACACA_site5366]  9.43 ± 0.26
45. ATAATATAAATAAAAACACACACAATCGTACATATA [CACACA_site9223]  9.45 ± 0.22
46. TATATAGAAAACAAGGCATGCAAATAACAAATTGTG [TGCATGCA_site473]  9.49 ± 0.35
47. ATATATATATATGCATGTACATATTTATCTTTATAT [XGTACX_site232]  9.57 ± 0.44
48. TGAATAAATATATATACACACCCATATATATATATA [CACACA_site8833]  9.62 ± 0.42
49. AAAACATCAAAAATGTGTACATATATATATATATAT [XGTACX_site8884]  9.66 ± 0.28
50. AGTATAAATAAATCATAAACATATATATATATATAT [GTGCAC_negctrl_site356]  9.67 ± 0.14
51. ACTTGACACCAACACACACACATATATAAAAAAAAA [CACACA_site756]  9.71 ± 0.47
52. ATATATATATATATATGTACTTAAAAATTTGTTTTG [XGTACX_site1514]  9.725 ± 0.05
53. AATAGAACAAATAAAACACACACATATATATATATA [CACACA_site8893]  9.76 ± 0.37
54. ATATATACATATAACACACACATATATATATATATA [CACACA_site2575]  9.82 ± 0.15
55. CTCATCCTTACATACACACACATATATATATATATA [CACACA_site103]  9.93
